The labels stand for the following.
B1: GGUCAGA (DNA:RNA)
RNA: GGGAGACCGGAAUUCAGAUUGUCCGGUCAGAUUAAAUCCCGUCGUAGCCACCA
DNA 1: CAATCTGAATTCCGGTCTCCC
DNA 2: TGGTGGCTACGACGGGATT
B2: GGCUUCU (DNA:RNA)
RNA: B1 RNA with U27C, C28U, A29U, G30C, A31U
DNA 1: CAATCTGAATTCCGGTCTCCC
DNA 2: TGGTGGCTACGACGGGATT
B3: CACAGGU (DNA:RNA)
RNA: B1 RNA with G25C, G26A, U27C, C28A, A29G, A31U
DNA 1: CAATCTGAATTCCGGTCTCCC
DNA 2: TGGTGGCTACGACGGGATT
B4: GUAUUCC (DNA:RNA)
RNA: B1 RNA with G26U, U27A, C28U, A29U, G30C, A31C
DNA 1: CAATCTGAATTCCGGTCTCCC
DNA 2: TGGTGGCTACGACGGGATT
B5: UAUAGAA (DNA:RNA)
RNA: B1 RNA with G25U, G26A, C28A, A29G, G30A
DNA 1: CAATCTGAATTCCGGTCTCCC
DNA 2: TGGTGGCTACGACGGGATT
B6: UUGUGAA (DNA:RNA)
RNA: B1 RNA with G25U, G26U, U27G, C28U, A29G, G30A
DNA 1: CAATCTGAATTCCGGTCTCCC
DNA 2: TGGTGGCTACGACGGGATT
B7: CACGAAG (DNA:RNA)
RNA: B1 RNA with G25C, G26A, U27C, C28G, G30A, A31G
DNA 1: CAATCTGAATTCCGGTCTCCC
DNA 2: TGGTGGCTACGACGGGATT
B8: GACAGUA (DNA:RNA)
RNA: B1 RNA with G26A, U27C, C28A, A29G, G30U
DNA 1: CAATCTGAATTCCGGTCTCCC
DNA 2: TGGTGGCTACGACGGGATT
B9: AAGAGGG (DNA:RNA)
RNA: B1 RNA with G25A, G26A, U27G, C28A, A29G, A31G
DNA 1: CAATCTGAATTCCGGTCTCCC
DNA 2: TGGTGGCTACGACGGGATT
B10: GACCAUG (DNA:RNA)
RNA: B1 RNA with G26A, U27C, G30U, A31G
DNA 1: CAATCTGAATTCCGGTCTCCC
DNA 2: TGGTGGCTACGACGGGATT
B11: UCAUUAU (DNA:RNA)
RNA: GGGAGACCGGAAUUCAGAUUGUCCUCAUUAUUUAAAUCCCGUCGUAGCCACCA
DNA 1: CAATCTGAATTCCGGTCTCCC
DNA 2: TGGTGGCTACGACGGGATT
B12: UUUCAGA (DNA:RNA)
RNA: B1 RNA with G25U, G26U
DNA 1: CAATCTGAATTCCGGTCTCCC
DNA 2: TGGTGGCTACGACGGGATT
B13: GGAGCGG (DNA:RNA)
RNA: B1 RNA with U27A, C28G, A29C, A31G
DNA 1: CAATCTGAATTCCGGTCTCCC
DNA 2: TGGTGGCTACGACGGGATT
B14: UUUCUCG (DNA:RNA)
RNA: B1 RNA with G25U, G26U, A29U, G30C, A31G
DNA 1: CAATCTGAATTCCGGTCTCCC
DNA 2: TGGTGGCTACGACGGGATT
B15: CUAAUAU (DNA:RNA)
RNA: B11 RNA with U25C, C26U, U28A
DNA 1: CAATCTGAATTCCGGTCTCCC
DNA 2: TGGTGGCTACGACGGGATT
B16: CACGGAC (DNA:RNA)
RNA: B11 RNA with U25C, C26A, A27C, U28G, U29G, U31C
DNA 1: CAATCTGAATTCCGGTCTCCC
DNA 2: TGGTGGCTACGACGGGATT
B17: AUUAAUC (DNA:RNA)
RNA: B1 RNA with G25A, G26U, C28A, G30U, A31C
DNA 1: CAATCTGAATTCCGGTCTCCC
DNA 2: TGGTGGCTACGACGGGATT
B18: GGAACGU (DNA:RNA)
RNA: B1 RNA with U27A, C28A, A29C, A31U
DNA 1: CAATCTGAATTCCGGTCTCCC
DNA 2: TGGTGGCTACGACGGGATT
B19: UGCAGCA (DNA:RNA)
RNA: B1 RNA with G25U, U27C, C28A, A29G, G30C
DNA 1: CAATCTGAATTCCGGTCTCCC
DNA 2: TGGTGGCTACGACGGGATT
B20: UGCUUCG (DNA:RNA)
RNA: B11 RNA with C26G, A27C, A30C, U31G
DNA 1: CAATCTGAATTCCGGTCTCCC
DNA 2: TGGTGGCTACGACGGGATT
B21: AAACGUU (DNA:RNA)
RNA: B11 RNA with U25A, C26A, U28C, U29G, A30U
DNA 1: CAATCTGAATTCCGGTCTCCC
DNA 2: TGGTGGCTACGACGGGATT
B22: UCGGGUC (DNA:RNA)
RNA: B11 RNA with A27G, U28G, U29G, A30U, U31C
DNA 1: CAATCTGAATTCCGGTCTCCC
DNA 2: TGGTGGCTACGACGGGATT
B23: UAGUUCG (DNA:RNA)
RNA: B11 RNA with C26A, A27G, A30C, U31G
DNA 1: CAATCTGAATTCCGGTCTCCC
DNA 2: TGGTGGCTACGACGGGATT
B24: AGGGGAC (DNA:RNA)
RNA: B1 RNA with G25A, U27G, C28G, A29G, G30A, A31C
DNA 1: CAATCTGAATTCCGGTCTCCC
DNA 2: TGGTGGCTACGACGGGATT
B25: GAACUGG (DNA:RNA)
RNA: B1 RNA with G26A, U27A, A29U, A31G
DNA 1: CAATCTGAATTCCGGTCTCCC
DNA 2: TGGTGGCTACGACGGGATT
B26: UGGUCUC (DNA:RNA)
RNA: B11 RNA with C26G, A27G, U29C, A30U, U31C
DNA 1: CAATCTGAATTCCGGTCTCCC
DNA 2: TGGTGGCTACGACGGGATT
B27: CCUCGCG (DNA:RNA)
RNA: B1 RNA with G25C, G26C, A29G, G30C, A31G
DNA 1: CAATCTGAATTCCGGTCTCCC
DNA 2: TGGTGGCTACGACGGGATT
B28: GUGGUAU (DNA:RNA)
RNA: B11 RNA with U25G, C26U, A27G, U28G
DNA 1: CAATCTGAATTCCGGTCTCCC
DNA 2: TGGTGGCTACGACGGGATT
B29: UGACGCA (DNA:RNA)
RNA: B1 RNA with G25U, U27A, A29G, G30C
DNA 1: CAATCTGAATTCCGGTCTCCC
DNA 2: TGGTGGCTACGACGGGATT
B30: CCUUAAG (DNA:RNA)
RNA: B11 RNA with U25C, A27U, U29A, U31G
DNA 1: CAATCTGAATTCCGGTCTCCC
DNA 2: TGGTGGCTACGACGGGATT
B31: UGUUCCU (DNA:RNA)
RNA: B11 RNA with C26G, A27U, U29C, A30C
DNA 1: CAATCTGAATTCCGGTCTCCC
DNA 2: TGGTGGCTACGACGGGATT

Positions count from the first letter of the chain named. The list shows a part of the results.

This test has as its target T1, RBFOX1 RRM RbFoxmut (Fox-RRM*) (Homo sapiens, UniProt Q9NWB1 109-208, R118D;E147R;N151S;E152T).
T1 sequence: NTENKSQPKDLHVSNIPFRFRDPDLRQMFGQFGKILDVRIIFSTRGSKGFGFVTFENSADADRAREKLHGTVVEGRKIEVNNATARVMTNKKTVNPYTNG
The test is described as follows: EMSA; HiTS-Eq, 1 nM pool, 10 min; buffer printed only for the single-RNA assays: 10 mM Tris pH 7.5, 150 mM NaCl, 3.4 mM EDTA, 0.001% NP-40, 30 C. The conditions noted are these: tags: His6 N-terminal (pET28a); label: 5' 32P. The procedure, abridged: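 These values rest on relative association constants, computed from read-count changes of each RNA species versus the control reaction and normalised to the cognate motif. Reads came from free RNA recovered by 8% native PAGE after purified RbFox RRM (wild type or mutant) at increasing concentrations was equilibrated for 10 min in 50 µL with 1 nM of a 5′-radiolabelled pool with 7 randomized nucleotides and DNA-annealed flanks.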
A general note: Mobility shift assays separate free from complexed probe on a gel.
For B1, the binding signal is 0.0741 KA relative to UGCAUGU.

For B2, the binding signal is 0.129 KA relative to UGCAUGU.

Take B3: the binding signal is 0.106 KA relative to UGCAUGU.

Consider B4, for which the binding signal was 0.0717 KA relative to UGCAUGU.

B5: the binding signal was 0.0862 KA relative to UGCAUGU.

In the case of B6, the binding signal is 0.133 KA relative to UGCAUGU.

On to B7, for which the binding signal is 0.124 KA relative to UGCAUGU.

Consider B8, for which the binding signal was 0.0962 KA relative to UGCAUGU.

On to B9, for which the binding signal was 0.0664 KA relative to UGCAUGU.

As for B10, the binding signal is 0.0827 KA relative to UGCAUGU.

Take B11: the binding signal is 0.121 KA relative to UGCAUGU.

As to B12, the binding signal was 0.0858 KA relative to UGCAUGU.

In the case of B13, the binding signal is 0.0766 KA relative to UGCAUGU.

For B14, the binding signal is 0.0926 KA relative to UGCAUGU.

Turning to B15, the binding signal is 0.1 KA relative to UGCAUGU.

Turning to B16, the binding signal is 0.0575 KA relative to UGCAUGU.

For B17, the binding signal was 0.0837 KA relative to UGCAUGU.

Turning to B18, the binding signal is 0.415 KA relative to UGCAUGU.

For B19, the binding signal was 0.189 KA relative to UGCAUGU.

Turning to B20, the binding signal is 0.213 KA relative to UGCAUGU.

Consider B21, for which the binding signal is 0.0775 KA relative to UGCAUGU.

Regarding B22, the binding signal was 0.149 KA relative to UGCAUGU.

Consider B23, for which the binding signal was 0.173 KA relative to UGCAUGU.

As to B24, the binding signal was 0.0716 KA relative to UGCAUGU.

As for B25, the binding signal is 0.0601 KA relative to UGCAUGU.

On to B26, for which the binding signal was 0.137 KA relative to UGCAUGU.

Consider B27, for which the binding signal was 0.154 KA relative to UGCAUGU.

Take B28: the binding signal is 0.189 KA relative to UGCAUGU.

Regarding B29, the binding signal is 0.152 KA relative to UGCAUGU.

For B30, the binding signal is 0.126 KA relative to UGCAUGU.

As for B31, the binding signal was 0.0953 KA relative to UGCAUGU.
